± gives the standard deviation of the averaged measurements. Some of the results follow.
These sequences were tested on PfAP2-G AP2 domain (GST-tagged) (assay: gcPBM binding intensity (ln(normalized median fluorescence intensity)); higher = stronger DNA binding).
Summary of the method: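 Binding of GST-tagged P. falciparum DNA-binding domains, expressed in E. coli and used at about 25 μg on average, was carried out for 1 h in 1× PBS containing 1% milk, 0.2 mg/ml BSA, 0.5% salmon testes DNA and 0.03% Triton X-100. The target was an Agilent 4 × 180k array of primer-extended double-stranded 36-bp intergenic genomic probes plus negative controls, read with Alexa488 anti-GST antibody at 488 nm. Binding intensity is the highest Masliner-normalised natural-log median intensity across replicate spots of either probe orientation.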

Sequence	gcPBM binding intensity (ln)
TAAAATTTTATAAAGGAACACACATTTTTTTTTTTT [CACACA_site8740]	10.1 ± 0.29
TAGACAAAATATAATGCACACTATTATTTTTATTTA [CACACA_site5508]	9.87 ± 0.16
GTATATTATATTGGGTGTACCATATATAATATAATC [XGTACX_site8579]	11.1 ± 0.7
TTATAAATAAAAAATACACACATATATATATATATA [CACACA_site207]	9.92 ± 0.37
AAAAATTAACAAAAGGTGCAATTTATTTATTAACGG	9.83 ± 0.014
AAAAAAGTTGTATTTGCACACATAAAAAAAAGATAT [CACACA_site3839]	10.4 ± 0.33
AATTTAAAAATGGACACACACAAAAAATAATACTTA [CACACA_site250]	10.9 ± 0.59
TAAAAATATATATGATTGCACTTAGGACAATATATA	10.3 ± 0.36
GGAAACAAAAAATATATACACACTAATCATAAAAAA [CACACA_site7890]	9.935 ± 0.092
ATTAATATATTATCATGTACACAAAAATAATTTTAT [XGTACX_site7257]	11.6 ± 1
TATTCTCTCTTATGAACACACATTTTTATTTTCAAA [CACACA_site7554]	10.2 ± 0.12
AAGAAAAATATATAAATAAATAAATATATAAATATA [CACACA_negctrl_site836]	9.24 ± 0.38
AGCAAATAAATAAATAAATAAATAAATATATATATA [TGCATGCA_negctrl_site40]	9.96 ± 0.88
ATAATTAACAAATACACACACACACGCCCACAAAAA [CACACA_site6389]	10.9 ± 0.54
TAAATATATATTATATGTACTTATATATATATATAT [XGTACX_site4448]	11.2 ± 0.78
TTTTTCATTTTTAAAATAATTATAATATTATACATA [XGTACX_negctrl_site43]	10 ± 0.14
TAAATCAGCCATAACACACATACATATATACATAAA [CACACA_site396]	9.895 ± 0.078
ATATATATGTGTAAAAGTACATATATTTTGAAATAT [XGTACX_site4024]	11.2 ± 0.79
TTTTAATAAAAGCCCATGCACACCTTAGAAAGTTTT [CACACA_site346]	10.04 ± 0.099

Sequence	gcPBM binding intensity (ln)
TCTATATAGATTTGCACACATAAAAATGCTTATATA [CACACA_site2389]	9.97 ± 0.2
ATTACATATTGATAAGTGCAAGTGTGAGAAATGTTA	10.2 ± 0.14
AATATATTATATATATGTACATATGTGTATACATTT [XGTACX_site937]	11.1 ± 0.54
TTTTATTTATTTTATTGTACATATATAAAACTATGA [XGTACX_site3476]	11.1 ± 0.63
TATATATATGTATATGTGCACAGTTTTCTTATTAAA [GTGCAC_site9990]	10.4 ± 0.24
TGGGCACCCATATACACACACAAATACAATGATAAA [CACACA_site4762]	10.2 ± 0.22
GGAAAAGGTATCCGTTCACACATAAATGGATACCAT [CACACA_site5072]	10.5 ± 0.4
AAAAAAAAAAAAATGTGTACATACATATATTTATAT [XGTACX_site3076]	11.5 ± 0.88
ATTAAAAAATTACAAGCATGCTTGTTAAAATTTTTT [TGCATGCA_site941]	9.49 ± 0.057
CTTTTTTTTTTAAATTGTACAAATGTGATGTAATAG [XGTACX_site3219]	10.9 ± 0.63
CAATCAAATGGACACACACACACCTAAACATAAAAG [CACACA_site5524]	10.9 ± 0.71
AAAAAAAGATTATACACACACATATATAAACCTACA [CACACA_site710]	9.97
TTTTTTTTTTTTGAAACATGCATTGTTTTATTCTTA [TGCATGCA_site15]	9.68 ± 0.24
TCTATACCTATTCTTACACACATATGTATATATATA [CACACA_site563]	10.14 ± 0.092
AATAATAACTGTAGGTGTACGTAAAAAAAAAATTAT [XGTACX_site3133]	11.7 ± 0.96
ATTGTGTTCATCAGCACACACAACATCATGCAATAA [CACACA_site6960]	10 ± 0.13
ATATATATATAATCAAGTACACAGTAATAAAAAGAA [XGTACX_site1070]	11.3 ± 0.6
TTTTTTTTTTTTTGTTGTACAATACTTAATCATTAT [XGTACX_site3422]	11.2 ± 0.92
AAAAATTTAATGAAATGTACATATATGTTATTAATA [XGTACX_site6091]	10.8 ± 0.4

Sequence	gcPBM binding intensity (ln)
AATAACCACCAACACACACACATATATATATATATA [CACACA_site3540]	10.1 ± 0.22
ATAATAATAATAAAAAGTACATTTAATTATATAGAA [XGTACX_site7742]	11.3 ± 0.83
TATATGTTTTAAAAGTGTACTTTAGTTTCAATTTTT [XGTACX_site4269]	11.3 ± 0.92
AAGAATGTTAATAGTACACACAATTATTATATAAAT [CACACA_site3739]	11.3 ± 0.91
AATAAAAAAAGTTTTTTTTTTTTTTAAACAATAGAC [CACACA_negctrl_site1061]	9.83 ± 0.099
TAAATGCACATATACACACACCCAATTTTAAGTTTT [CACACA_site7428]	10.05 ± 0.057
ATACATATTACATGTTGTACTCCAACAAAAATGCCC [XGTACX_site3201]	11.6 ± 0.95
TTAATTTCATTTTCTACACACCTATCCTTTTTTTTT [CACACA_site772]	10 ± 0.11
ACATCAAGAATTATTAAGAATACGGATAGATAAAAT [GTGCAC_negctrl_site261]	9.98 ± 0.028
ATGTGATATAAGTACACACACATATGTATATAGAAT [CACACA_site1823]	11.5 ± 1.1
TTTCAAAATGTGTAAAATAAAAATAATATCATTACA [TGCATGCA_negctrl_site521]	9.71 ± 0.014
GAAAAGAACAAGAGCATGCACTTAATAAGAATAATA	9.75 ± 0.028
TGTTTCTTATTTTTTTCACACACTAAACATTTCAAA [CACACA_site2218]	10.2 ± 0.2
AATGTATATATGTAATGTACATATGTAATGTATATA [XGTACX_site6509]	10.8 ± 0.41
TTTTGTTTTGTTTTGTTTTGTTTTGTTTTATTTTAT [GTGCAC_negctrl_site383]	9.86 ± 0.27
AATATAGATATAACCACACACATACATCTAATTCTA [CACACA_site1760]	10.04 ± 0.028
TATGTCGACATTTAAAGTACAAAAAAAAAAAAAAAA [XGTACX_site8985]	11 ± 0.96
ATTTATTTAAACAAATCACACACAAATATATATACA [CACACA_site8622]	10.2 ± 0.17
TATATTAAAATATTCACACACTAACGTAAATCATTG [CACACA_site5520]	9.89 ± 0.014

Reference: the supplement of paper PMC11417369
